# Reference: the supplement of paper PMC10037445
# Where “and” joins values, the source holds several entries; their conditions need not be identical. Identical values can stand only once. Over roughly 2,900 compounds, “NF-kB SEAP reporter activity, fold change vs agonist alone” has its median near 0.99; the highest 2% begin near 2.6. The list shows a part of the results.
# How the values were obtained:
# [1] = system: RAW-Dual; test: NF-kB SEAP reporter activity, fold change vs agonist alone; cytotoxicity flag (confluency mask): not cytotoxic; higher = enhanced NF-kB activity
# In short: (§1)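 Supernatant from RAW-Dual macrophages was read after 20 hours for IRF by QuantiLuc luminescence and for NF-κB by QuantiBlue absorbance at 620 nm. The cells (50,000 cells/well in DMEM, 384-well plates, 37 °C, 5% CO2) had received 50 nL of library stock by pin tool and, 1 h later, a PRR agonist. Reporter activity is expressed relative to agonist-alone wells as fold change, and wells were flagged cytotoxic if IncuCyte confluency was under 70% of agonist controls in both mask sets.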
# [2] = system: RAW-Dual; test: NF-kB SEAP reporter activity, fold change vs agonist alone; higher = enhanced NF-kB activity
# In short: as §1
# [3] = system: RAW-Dual; test: NF-kB SEAP reporter activity, fold change vs agonist alone; cytotoxicity flag (confluency mask): cytotoxic (confluency <70% of control); higher = enhanced NF-kB activity
# In short: as §1
# [4] = agonist: ODN 1826 (TLR9) 0.5 ug/mL
# [5] = agonist: Pam2CSK4 (TLR2/6) 0.1 ug/mL
# [6] = agonist: Pam3CSK4 (TLR2/1) 0.1 ug/mL
# [7] = library stock concentration (final ~1000-fold dilution): 10 mM, cytotoxicity flag (confluency mask): not cytotoxic, agonist: Imiquimod (TLR7) […]
# [8] = library stock concentration (final ~1000-fold dilution): 10 mM, cytotoxicity flag (confluency mask): not cytotoxic, agonist: MPLA (TLR4) […]
# [9] = library stock concentration (final ~1000-fold dilution): 10 mM, cytotoxicity flag (confluency mask): cytotoxic (confluency <70% of control), agonist: Imiquimod (TLR7) […]
# [10] = library stock concentration (final ~1000-fold dilution): 10 mM, cytotoxicity flag (confluency mask): cytotoxic (confluency <70% of control), agonist: MPLA (TLR4) […]
compound,measurement,setting,value
CCCC(CCC)C(=O)O (library stock concentration (final ~1000-fold dilution): 10 mM),NF-kB SEAP reporter activity,[1]; agonist: LPS (TLR4) 0.1 ug/mL,1.3 and 1.11
same,NF-kB SEAP reporter activity,[1]; [4],0.895 and 1.15 and 1.02
same,NF-kB SEAP reporter activity,[1]; [5],0.949 and 1.22 and 1.02
same,NF-kB SEAP reporter activity,[1]; [6],1.25 and 1.32 and 1.08
CC12CCC(O)CC1=CCC1C2CCC2(C)C(C(O)CC(O)(C(F)(F)F)C(F)(F)F)CCC12 (centres undefined),NF-kB SEAP reporter activity,[2]; [7],0.815
same,NF-kB SEAP reporter activity,[2]; [8],0.786
CC12CCC(O)CC1=CCC1C2CCC2(C)C(C(O)CC(O)(C(F)(F)F)C(F)(F)F)CCC12 (centres undefined) (library stock concentration (final ~1000-fold dilution): 10 mM),NF-kB SEAP reporter activity,[1]; agonist: LPS (TLR4) 0.1 ug/mL,0.54
same,NF-kB SEAP reporter activity,[1]; [4],0.663
same,NF-kB SEAP reporter activity,[1]; [5],0.739
same,NF-kB SEAP reporter activity,[1]; [6],0.489
Nc1ccn(C2OC(CO)C(O)C2(F)F)c(=O)n1 (centres undefined),NF-kB SEAP reporter activity,[2]; [9],2.14
same,NF-kB SEAP reporter activity,[2]; [10],1.35
Nc1ccn(C2OC(CO)C(O)C2(F)F)c(=O)n1 (centres undefined) (library stock concentration (final ~1000-fold dilution): 10 mM),NF-kB SEAP reporter activity,[3]; agonist: LPS (TLR4) 0.1 ug/mL,0.91
same,NF-kB SEAP reporter activity,[3]; [4],1.88
same,NF-kB SEAP reporter activity,[3]; [5],1.18
same,NF-kB SEAP reporter activity,[3]; [6],1.05
CC(O)C(=O)O.CN1CCN(c2ccc3nc(-c4c(N)c5c(F)cccc5[nH]c4=O)[nH]c3c2)CC1 (library stock concentration (final ~1000-fold dilution): 10 mM),NF-kB SEAP reporter activity,[3]; agonist: LPS (TLR4) 0.1 ug/mL,0.341
same,NF-kB SEAP reporter activity,[3]; [4],0.18
same,NF-kB SEAP reporter activity,[3]; [5],0.15
same,NF-kB SEAP reporter activity,[3]; [6],0.219
CC(O)C(=O)O.CN1CCN(c2ccc3nc(-c4c(N)c5c(F)cccc5[nH]c4=O)[nH]c3c2)CC1,NF-kB SEAP reporter activity,[2]; [9],0.335
same,NF-kB SEAP reporter activity,[2]; [10],0.591
O=C(NC1CCNCC1)c1n[nH]cc1NC(=O)c1c(Cl)cccc1Cl (library stock concentration (final ~1000-fold dilution): 10 mM),NF-kB SEAP reporter activity,[3]; agonist: LPS (TLR4) 0.1 ug/mL,1.14
same,NF-kB SEAP reporter activity,[3]; [4],2.38
same,NF-kB SEAP reporter activity,[3]; [5],0.837
same,NF-kB SEAP reporter activity,[3]; [6],1.37
O=C(NC1CCNCC1)c1n[nH]cc1NC(=O)c1c(Cl)cccc1Cl,NF-kB SEAP reporter activity,[2]; [9],2.4
same,NF-kB SEAP reporter activity,[2]; [10],1.28
O=CN1CC/C(=C/c2ccc3c(c2)OCO3)C1=O,NF-kB SEAP reporter activity,[2]; [7],1.03
same,NF-kB SEAP reporter activity,[2]; [8],1.09
O=CN1CC/C(=C/c2ccc3c(c2)OCO3)C1=O (library stock concentration (final ~1000-fold dilution): 10 mM),NF-kB SEAP reporter activity,[1]; agonist: LPS (TLR4) 0.1 ug/mL,1.17
same,NF-kB SEAP reporter activity,[1]; [4],0.856
same,NF-kB SEAP reporter activity,[1]; [5],1.31
same,NF-kB SEAP reporter activity,[1]; [6],1.37
CCCCC1=NC2(CCCC2)C(=O)N1Cc1ccc(-c2ccccc2-c2nn[nH]n2)cc1,NF-kB SEAP reporter activity,"[2]; library stock concentration (final ~1000-fold dilution): 2 mM, cytotoxicity flag (confluency mask): not cytotoxic, agonist: Imiquimod (TLR7) […]",1.01
same,NF-kB SEAP reporter activity,"[2]; library stock concentration (final ~1000-fold dilution): 2 mM, cytotoxicity flag (confluency mask): not cytotoxic, agonist: MPLA (TLR4) […]",1.05
CCCCC1=NC2(CCCC2)C(=O)N1Cc1ccc(-c2ccccc2-c2nn[nH]n2)cc1 (library stock concentration (final ~1000-fold dilution): 2 mM),NF-kB SEAP reporter activity,[1]; agonist: LPS (TLR4) 0.1 ug/mL,1.22
same,NF-kB SEAP reporter activity,[1]; [4],1
same,NF-kB SEAP reporter activity,[1]; [5],1.06
same,NF-kB SEAP reporter activity,[1]; [6],1.12
COc1ccc(-c2coc3cc(O)cc(O)c3c2=O)cc1 (library stock concentration (final ~1000-fold dilution): 10 mM),NF-kB SEAP reporter activity,[1]; agonist: LPS (TLR4) 0.1 ug/mL,1.17
same,NF-kB SEAP reporter activity,[1]; [4],1.32
same,NF-kB SEAP reporter activity,[1]; [5],1.14
same,NF-kB SEAP reporter activity,[1]; [6],1.21
COc1ccc(-c2coc3cc(O)cc(O)c3c2=O)cc1,NF-kB SEAP reporter activity,[2]; [7],1.36
same,NF-kB SEAP reporter activity,[2]; [8],1.15
CC(C)(C)c1cc(/C=C(\C#N)C(N)=S)cc(C(C)(C)C)c1O (library stock concentration (final ~1000-fold dilution): 10 mM),NF-kB SEAP reporter activity,[3]; agonist: LPS (TLR4) 0.1 ug/mL,1.9
same,NF-kB SEAP reporter activity,[3]; [4],0.73
same,NF-kB SEAP reporter activity,[3]; [5],0.297
same,NF-kB SEAP reporter activity,[3]; [6],0.648
CC(C)(C)c1cc(/C=C(\C#N)C(N)=S)cc(C(C)(C)C)c1O,NF-kB SEAP reporter activity,[2]; [9],2
same,NF-kB SEAP reporter activity,[2]; [10],1.94
CCCCS(=O)(=O)NC(Cc1ccc(OCCCCC2CCNCC2)cc1)C(=O)O.Cl.O (centres undefined),NF-kB SEAP reporter activity,[2]; [7],0.94
same,NF-kB SEAP reporter activity,[2]; [8],1.02
